Article PMC4336329 (PLoS ONE, 2015)
About 14,000 (4.5%) of roughly 310,000 compounds showed an effect of 50% or more. The effect is printed as a negative number. The list shows a part of the results.

The compounds below were run against human ether-à-go-go-related gene (hERG) potassium channel (human, UniProt Q12809) (assay: primary screen, population patch clamp on CHO cells stably expressing hERG).
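Note: peak tail current of the secondary pulse compared with the same well before compound.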

human ether-à-go-go-related gene (hERG) potassium channel, sequence (Q12809 whole entry, looked up): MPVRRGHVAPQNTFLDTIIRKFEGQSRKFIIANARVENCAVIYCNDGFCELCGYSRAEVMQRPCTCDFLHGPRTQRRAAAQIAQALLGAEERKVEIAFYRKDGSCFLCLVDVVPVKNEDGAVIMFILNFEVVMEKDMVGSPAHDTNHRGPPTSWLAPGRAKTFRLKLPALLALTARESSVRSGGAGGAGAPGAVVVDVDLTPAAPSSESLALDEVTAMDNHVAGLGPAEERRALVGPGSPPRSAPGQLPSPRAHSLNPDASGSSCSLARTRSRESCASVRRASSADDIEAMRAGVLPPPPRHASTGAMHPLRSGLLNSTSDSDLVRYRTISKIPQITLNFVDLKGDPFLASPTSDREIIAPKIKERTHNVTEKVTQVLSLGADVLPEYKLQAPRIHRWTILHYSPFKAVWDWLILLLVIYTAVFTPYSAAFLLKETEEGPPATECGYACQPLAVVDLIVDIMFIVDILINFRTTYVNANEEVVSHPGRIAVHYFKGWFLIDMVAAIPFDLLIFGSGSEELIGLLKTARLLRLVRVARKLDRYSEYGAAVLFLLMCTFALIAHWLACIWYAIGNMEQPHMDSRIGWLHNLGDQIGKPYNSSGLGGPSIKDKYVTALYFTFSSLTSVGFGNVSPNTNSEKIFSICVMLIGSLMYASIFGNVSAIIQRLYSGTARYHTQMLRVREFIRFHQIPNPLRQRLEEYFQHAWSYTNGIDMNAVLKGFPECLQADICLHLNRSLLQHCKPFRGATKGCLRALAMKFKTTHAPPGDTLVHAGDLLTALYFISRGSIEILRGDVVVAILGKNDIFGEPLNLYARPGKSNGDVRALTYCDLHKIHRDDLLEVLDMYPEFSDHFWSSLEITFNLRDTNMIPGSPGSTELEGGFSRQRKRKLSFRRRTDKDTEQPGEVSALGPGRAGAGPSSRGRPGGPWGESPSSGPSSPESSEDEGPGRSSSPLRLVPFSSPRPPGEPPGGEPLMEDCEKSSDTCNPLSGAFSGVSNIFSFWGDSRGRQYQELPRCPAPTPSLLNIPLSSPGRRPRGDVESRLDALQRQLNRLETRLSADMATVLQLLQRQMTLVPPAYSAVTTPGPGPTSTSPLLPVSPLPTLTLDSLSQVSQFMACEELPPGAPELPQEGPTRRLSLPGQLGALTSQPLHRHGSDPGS

SMILES	hERG current change (%, negative = inhibition) at 10uM [%]
NS(=O)(=O)c1ccc(CCNC(=O)c2ccc([N+](=O)[O-])cc2[N+](=O)[O-])cc1	3.48
O=[N+]([O-])c1cnc2nc(-c3ccncc3)nn2c1[O-].[Na+]	47.9
Cc1c(NC(=O)c2cc(-c3ccc(Cl)s3)nc3ccccc23)c(=O)n(-c2ccccc2)n1C	-10.8
CC(=O)ON1C(C)(C)Cc2noc(N)c2C1(C)C	10.2
O=C(NC(=S)Nc1ccc(F)cc1)C1CCCCC1	13.4
COc1ccc(-c2noc(CNS(=O)(=O)c3ccc(NC(C)=O)cc3)n2)cc1	8.15
COc1ccc(/C=C2\Oc3cc(OCC(=O)N4CCC[C@H]4C(=O)O)ccc3C2=O)c(OC)c1	4.43
COc1ccc(COCCN2CCN(S(=O)(=O)c3ccc(C)cc3)CCC2=O)cc1	-16
O=C(O)c1ccc(-c2nnc(-c3ccccc3)o2)cc1	5.3
CN1C(=O)[C@H]2[C@@H](/C=C/c3ccccc3)N3C(=O)CN(Cc4ccccn4)C(=O)[C@@]3(C)[C@H]2C1=O	14.2
Cn1c(CCNC(=O)c2ccco2)nc2cc(NC(=O)C3CCCCC3)ccc21	-22.7
Cn1cc(-c2ccccc2C(N)=O)c(=O)c2ccccc21	5.37
CC(C)N1CCC(N2CCN(Cc3ccc(Oc4ncccn4)cc3)CC2CCO)CC1 (stereo not drawn)	23.9
COc1ccc(Cc2nnc(Nc3ccc(Cl)cc3)[nH]c2=O)cc1	21.3
CNC(=O)CN(C1CCCCC1)S(=O)(=O)c1ccc(OC)c(Cl)c1	12.5
CC(C)(C)C1CCc2onc(C(=O)Nc3ccc(F)cc3F)c2C1 (stereo not drawn)	0.544
Cc1ccc[n+](CC(=O)Nc2cc(C(F)(F)F)ccc2N2CCOCC2)c1.[Cl-]	35.9
CCS(=O)(=O)Nc1ccc(-c2nnc(SCC(=O)c3cccc(OC)c3)o2)cc1	9.41
Cc1cccc(NC(=O)c2ccc([N+](=O)[O-])s2)c1C	10.1
CCn1cc(CNC(=O)c2ccc(Cl)c([N+](=O)[O-])c2)c(C)n1	-6.98
Cc1c(Br)c([N+](=O)[O-])nn1C(C)C(=O)Nc1nccs1 (stereo not drawn)	-4.3
CC(C)n1c(SCC(=O)Nc2ccc(F)cc2)nnc1C1CC1	-50.1

SMILES	hERG current change (%, negative = inhibition) at 10uM [%]
COc1ccc(NC(=O)CSc2nc3c(c(=O)n2-c2ccccc2)SCC3)c(OC)c1	-4.61
O=C(NN1C(=O)c2ccccc2NC1c1ccc([N+](=O)[O-])o1)c1ccccc1 (stereo not drawn)	-9.78
O=C(NCC(=O)N1CCN(Cc2ccccc2)CC1)c1ccc(Br)cc1	-53.5
Nc1ccccc1-n1c(=O)n(Cc2ccccc2F)c(=O)c2[nH]cnc21	12.2
Cc1cccc([C@H](NC(=O)OC(C)(C)C)C(=O)OC(C)(C)C)c1	-2.76
CC(C)c1cccc(C(C)C)c1NC(=O)CCN1C(=O)NC2(CCCC2)C1=O	3.24
CC(C)(Oc1ccc(Cl)cc1)C(=O)O	18.4
Cc1ccc(NC(=O)Cn2nnc3ccccc32)cc1	12.1
Cc1ccc(NC(=O)c2cccc(NC(=O)CCC(=O)O)c2)cc1C	26
CCOC(=O)C1=C(C)OC(N)=C(C#N)C1c1cc(C)sc1C (stereo not drawn)	-25.5
Cc1c(=O)n(OCc2ccccn2)c2ccccc2[n+]1[O-]	10.9
CCOc1ccc(C(=O)/C=C/c2ccc(OC)c(OC)c2)cc1	3.72
Cn1cccc1Cc1nnc(SCC(=O)Nc2ccc3c(c2)OCO3)n1-c1ccc(F)cc1	-11
COc1ccc2c(CC(=O)OCC(=O)Nc3ccc4c(c3)OCO4)coc2c1	-8.08
CC(=O)NS(=O)(=O)c1ccccc1	9.31
COc1cccc(CN2CCNC(=O)C2CC(=O)NCc2cc(C(C)C)no2)c1 (stereo not drawn)	6.71
CC(=O)N1CC(=O)N(c2ccccc2)C1=O	11.5
CC(=O)c1ccc(NC(=O)CCC(=O)N2CC(C)Oc3ccc(C)cc32)cc1 (stereo not drawn)	4.13
CCCCC(C(=O)NC1CCCC1)N(Cc1ccco1)C(=O)Cn1nnc(-c2ccc(F)cc2)n1 (stereo not drawn)	-28.8
CCN(CC)S(=O)(=O)c1ccc(OCC(=O)NCc2ccco2)cc1	-0.226
CCOC(=O)c1ccc2c(c1)sc(=NC(=O)c1ccco1)n2CCOC	1.55
CCOC(=O)c1ccccc1NC(=O)c1cccc2c1C(=O)N(C1CCN(C(=O)OCC)CC1)C2	-30.4

SMILES	hERG current change (%, negative = inhibition) at 10uM [%]
O=S1(=O)N=C(Nc2ccc(O)cc2)c2ccccc21	31.9
Cc1ccc([N+](=O)[O-])cc1NC(=S)NC(=O)C(C)(C)C	3.44
CCC(C)NC(=O)CN1C(=O)C(CC)Sc2ccccc21 (stereo not drawn)	-9.34
CC(Sc1nnc(COc2ccccc2)n1Cc1ccccc1)C(=O)O (stereo not drawn)	17
CCC(=O)NC(Nc1c(C)n(C)n(-c2ccccc2)c1=O)C(Cl)(Cl)Cl (stereo not drawn)	4.98
COc1ccc(C(=O)NCCSC2CCCCC2)cc1	-15.8
Cc1ccc(NCC(=O)c2ccccc2)cc1Cl	12.3
Cc1cc(CO)nn1-c1ccc([N+](=O)[O-])cc1	16.3
Cc1cccc(NC(=O)c2ccc(S(=O)(=O)N(C)CC3CCCO3)cc2)c1C (stereo not drawn)	6.92
Cc1[nH]c(C)c(S(=O)(=O)N2CCN(c3cccc(C(F)(F)F)c3)CC2)c1C(=O)N1CCCC1	-28.4
Cc1sc2ncnc(SC(C)C(=O)N3c4ccccc4Sc4ccccc43)c2c1C (stereo not drawn)	1.49
CCCCCCC1CC(CSc2ncn[nH]2)OC1=O (stereo not drawn)	-28.2
COc1ccc(NC(=O)N2CCN(c3ccc([N+](=O)[O-])cc3)CC2)cc1	-36.9
COC(=O)c1nc(Cl)c(Cl)c(N)c1Cl	-17.5
COc1ccc(NC(=O)C2CC(c3c(F)cccc3Cl)=NO2)cc1 (stereo not drawn)	4.16
COC(=O)CSc1nnc(CNc2ccc(OC)cc2)n1C	7.3
CCN1C(Nc2ccccc2)=NC[C@@H]1CC(C)C	3.75
O=C(NC1CCCCCC1)c1cc2n(n1)C(C(F)(F)F)CC(c1ccco1)N2 (stereo not drawn)	-6.84
CCc1ccc(/C=C2/SC(=S)N(CCC(=O)NCCCN3CCOCC3)C2=O)cc1	-23.5
Cc1cc(=O)oc(C)c1C(=O)Nc1ccc2ncccc2c1	-18.6
COc1ccc2cc(CN(CCCN3CCOCC3)Cc3nnnn3C3CCCCC3)c(=O)[nH]c2c1	-26.5
CC(=O)C1=C(C)NC(=O)NC1c1cccc(O)c1 (stereo not drawn)	23.8

SMILES	hERG current change (%, negative = inhibition) at 10uM [%]
CCOc1ccc(Br)cc1S(=O)(=O)Nc1cccc(S(=O)(=O)N(CC)CC)c1	-4.53
COc1ccc(CCCc2nc3ccccc3[nH]2)cc1	-21.3
Cc1nc2sc(C(c3ccc(Cl)cc3)N3CCN(C(=O)c4ccco4)CC3)c(O)n2n1 (stereo not drawn)	-60.1
COC(=O)C1=C(C(=O)OC)[C@@H]2N(C)c3ccccc3[C@@]23C[C@@H](CO)N(C(=O)NCCBr)C3=N1	-14.7
Cc1[nH]c2ccc(C(=O)N3CCN(Cc4ccccc4)CC3)cc2c1C	-35.1
COc1ccc(-c2[nH]ncc2CN(C)C(C)c2ccon2)c(OC)c1 (stereo not drawn)	20.6
COc1ccccc1OCC(O)Cn1c(=N)n(Cc2ccccc2)c2ccccc21.Cl (stereo not drawn)	-71
Cc1ccc(-n2c(O)c(/C=N/Nc3ccccc3)c(=O)[nH]c2=O)cc1C	2.86
COc1ccc(OC)c(C(=O)NC(CC(N)=O)c2ccc(NC(C)C)c([N+](=O)[O-])c2)c1 (stereo not drawn)	-38.2
C(=N\n1cnnc1SCc1ccccc1)/c1ccco1	-1.71
CCCc1nc(C)c(-c2ccc(OC)c(OC)c2)c(=O)[nH]1	3.64
Cc1[nH]c2ccccc2c1C(=O)CN1CCC2(CC1)OCCO2	-13.3
COc1ccc(-n2c(O)c(C(C)=NCc3ccc4c(c3)OCO4)c(=O)[nH]c2=O)cc1	6.04
Cc1nc(CNS(=O)(=O)c2ccc(F)cc2)cs1	6.96
Cc1ccc(-n2nc3c(N4CCC(C(=O)N5CCN(C)CC5)CC4)nnc(C)c3c2C)cc1	11.9
CCN(CC)S(=O)(=O)c1ccc(NC(=O)c2cc(=O)[nH]c3ccccc23)cc1	10.5
Cc1ccc([N+](=O)[O-])cc1N=C(c1ccc([N+](=O)[O-])cc1)N1CCOCC1	-20.8
O=C(NCCSCc1ccc(Cl)cc1)c1cccs1	-63.7
CC(C)(C)NC(=O)CSc1nc(O)cc(=O)n1-c1ccccc1F	6.39
Cc1csc(SCc2nnc(-c3ccccc3Br)o2)n1	-7.45
Cc1ccc(C)c(NC(=O)CSc2nc3ccccc3nc2N2CCOCC2)c1	20.7
